Measurements reported in article PMC7948509.
These are yes or no findings as the source states them, for the method shown. Binding seen in cells or lysates may run through a third protein. Some binding calls cover weakened binding; strength is not graded here.

Protein sequences, listed by entry. Tags and fused reporters are not part of them.
UniProt Q9BSQ5: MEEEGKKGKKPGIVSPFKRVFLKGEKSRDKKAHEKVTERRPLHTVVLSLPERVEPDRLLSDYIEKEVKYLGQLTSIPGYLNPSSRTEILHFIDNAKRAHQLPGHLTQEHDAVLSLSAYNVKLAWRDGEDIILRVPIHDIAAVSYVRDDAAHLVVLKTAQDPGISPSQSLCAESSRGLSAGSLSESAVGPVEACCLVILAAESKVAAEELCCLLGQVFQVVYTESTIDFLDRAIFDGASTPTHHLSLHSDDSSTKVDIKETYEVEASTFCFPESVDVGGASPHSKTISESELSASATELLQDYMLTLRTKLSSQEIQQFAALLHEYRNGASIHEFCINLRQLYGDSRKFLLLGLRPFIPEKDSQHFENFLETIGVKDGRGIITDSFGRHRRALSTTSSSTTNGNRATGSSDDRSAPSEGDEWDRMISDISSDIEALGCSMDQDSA

Tests used:
[1] = target: T1, MEKK3 (endogenous) (human (endogenous in HEK293T and HEK293A)) (UniProt Q99759); experiment: co-IP; endogenous MEKK3 immunoprecipitated from HEK293A cell lysates; detection with anti-STRN3 and anti-CCM2 antibody (Fig. 6D, untreated)
T1 sequence: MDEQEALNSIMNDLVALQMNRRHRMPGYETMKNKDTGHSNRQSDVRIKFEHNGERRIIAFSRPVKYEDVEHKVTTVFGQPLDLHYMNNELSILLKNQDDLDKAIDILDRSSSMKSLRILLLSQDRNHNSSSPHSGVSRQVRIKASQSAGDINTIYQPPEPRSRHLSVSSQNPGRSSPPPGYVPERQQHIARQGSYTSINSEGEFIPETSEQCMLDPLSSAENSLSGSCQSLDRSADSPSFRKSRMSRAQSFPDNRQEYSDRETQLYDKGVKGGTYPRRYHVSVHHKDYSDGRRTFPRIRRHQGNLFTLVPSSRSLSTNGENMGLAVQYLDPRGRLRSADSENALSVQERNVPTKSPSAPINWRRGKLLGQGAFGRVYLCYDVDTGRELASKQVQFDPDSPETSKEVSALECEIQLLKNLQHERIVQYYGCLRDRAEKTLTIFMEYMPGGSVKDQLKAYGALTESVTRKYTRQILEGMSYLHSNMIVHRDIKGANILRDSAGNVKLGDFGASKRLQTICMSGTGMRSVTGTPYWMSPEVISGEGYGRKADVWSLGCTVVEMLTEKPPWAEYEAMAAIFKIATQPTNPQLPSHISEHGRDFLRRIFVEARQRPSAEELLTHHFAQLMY

[2] = target: T1, MEKK3 (endogenous) (human (endogenous in HEK293T and HEK293A)); experiment: condition: only cells serum-starved for 2 h or treated with LatB for 1 h; co-IP; as a11, but HEK293A cells serum-starved for 2 h or treated with LatB for 1 h (Fig. 6D)

binding [1]: binds | binding [2]: no binding
Substance: CCM2 (endogenous) (from UniProt Q9BSQ5 1-444)
